The shares of active, inactive and inconclusive entries below differ from those in the screen. For some of these results: A potency beside an inconclusive call is a rough fit, not a confirmed value. Calls of active or inactive are those of the source. Unless noted, calls come from the whole dose curve; as a rule, active = well fitted curve in the direction sought with a large enough effect; inconclusive = small, poorly fitted or top-dose-only effect, or another doubt; inactive = no such curve, though single readings can be large; an effect the other way counts as inactive or inconclusive.
Key:
[1] = Cell Viability - BJ (AID 421; calls by dose curve;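 note: potency is the fitted concentration of half-maximal effect; cells exposed to compound for 40 hours at 37 °C before readout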); conditions: BJ fibroblast viability, qHTS
How it was run: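 Normal human BJ foreskin fibroblasts, 1500/well in complete medium, treated 40 hr at 37 °C. Cellular ATP by CellTiter-Glo luminescence; normalized to DMSO and 100 uM tamoxifen, AC50 from Hill fit.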

[2] = Cell Viability - Jurkat (AID 426;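 active = dose-dependent loss of cell ATP signal giving a full or clear fitted curve, ranked by lower potency value; inconclusive = weak partial curve or response only at the top dose; inactive = no loss of viability signal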; note: potency is the fitted concentration of half-maximal effect); conditions: qHTS
How it was run: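 Seed 5000 Jurkat E6-1 cells/well; add compound; incubate 40 hr at 37 °C; add CellTiter-Glo; wait 20 min at room temperature; read luminescence. Fit concentration-response with Hill equation for AC50.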

[3] = Cell Viability - Hek293 (AID 427;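 active = compounds whose dose-response curve shows a full or clear partial loss of cell viability, called from curve shape rather than a numeric limit; inconclusive = weak partial curves or an effect only at the top dose; inactive = no dose-dependent loss of viability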;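 note: potency is the fitted concentration of half-maximal effect; cells exposed to compound for 40 hours at 37 °C before reading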); conditions: qHTS
How it was run: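 HEK293 cells in complete medium were exposed to compound for 40 hr at 37 °C, then cellular ATP was read by CellTiter-Glo luminescence. Data were normalized to DMSO (basal) and 100 uM tamoxifen (100% inhibition), and AC50 came from Hill fits.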

[4] = Cell Viability - HepG2 (AID 433; calls by dose curve;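 note: potency is the fitted concentration of half-maximal effect; potency for ATP loss meaning cytotoxicity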); conditions: qHTS
How it was run: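 Cytotoxicity read as ATP loss (CellTiter-Glo luminescence) after 40 hr compound exposure of HepG2, 1500 cells/well, 37 °C. AC50 by Hill equation; 0% set by DMSO, 100% inhibition by 100 uM tamoxifen.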

[5] = Cell Viability - SK-N-SH (AID 435; calls by dose curve; note: potency is the fitted concentration of half-maximal effect); conditions: SK-N-SH neuroblastoma cell viability qHTS
How it was run: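 qHTS cytotoxicity: CellTiter-Glo ATP luminescence after 40 h compound exposure of human neuroblastoma SK-N-SH cells at 37 °C. AC50 derived by Hill-equation fitting, with DMSO as basal and 100 uM tamoxifen as full inhibition.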

[6] = molecular target: Mitogen-activated protein kinase 10 (Mus musculus) (UniProt Q61831); assay: JNK3 AlphaScreen Assay (AID 530; active = well fitted curve in either direction with a large enough effect, not every such curve was filed as active; inconclusive = small, poorly fitted or top-dose-only effect, or another doubt;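 note: kinase came from lysate of stimulated human HepG2 cells; signal reports phosphorylation of biotinylated GST-cJun 1-79 at Ser73 with 10 µM ATP; potency is the fitted concentration of half-maximal effect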); conditions: JNK3 lysate, c-Jun phosphorylation; activity change, negative = inhibition: at 57.1 µM (top of the series)
How it was run: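 qHTS format: compounds tested as titrations against IL-1beta/TNF-alpha-activated HepG2 lysate JNK3 with biotin-GST-cJun substrate and 10 uM ATP at room temperature. Loss of anti-phospho-cJun AlphaScreen signal indicates inhibition.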

[7] = Cell Viability - N2a (AID 540); conditions: N2a mouse neuroblastoma cell viability; activity change, negative = cytotoxicity: at 92.2 µM (top of the series);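 note: plate controls were DMSO alone for no effect and tamoxifen control for full effect; nearly all actives have a fitted effect of over 45% in size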
How it was run: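 First, 1500 N2a cells per well incubate 5 hr at 37 °C; next, compounds are added and incubated 40 hr at 37 °C; finally CellTiter-Glo is added and luminescence read after 20 min, with AC50 derived by Hill modeling.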

[8] = Cell Viability - NIH 3T3 (AID 541); conditions: NIH 3T3 cell viability, qHTS; activity change, negative = cytotoxicity: at 92.2 µM (top of the series);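 note: plate controls were DMSO alone for no effect and tamoxifen positive control for full effect; nearly all actives have a fitted effect of over 25% in size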
How it was run: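 AC50 values reflect concentration-dependent loss of intracellular ATP in NIH 3T3 cells after 40 hr treatment in complete culture medium, quantified by luciferase-based luminescence.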

[9] = Cell Viability - H-4-II-E (AID 543); note: potency is the fitted concentration of half-maximal effect; nearly all actives have a fitted effect of over 35% in size
How it was run: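 Here, cytotoxicity is measured in the rat hepatoma line H-4-II-E as loss of intracellular ATP after 40 hr compound treatment, detected by luciferase luminescence.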

[10] = Cell Viability - LYMP2-001 (AID 921); note: potency is the fitted concentration of half-maximal effect; nearly all actives have a fitted effect of over 70% in size
How it was run: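 Cellular ATP loss read by luciferase luminescence after 24 h compound exposure at 37 C in complete medium. LYMP2-001 lymphoblastoid cells, 2500/well; qHTS concentration-response data fitted with Hill equation for AC50.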

[11] = MultiTox-Fluor Cytotoxicity Assay - LYMP1-001 - Live Cells (AID 947); note: potency is the fitted concentration of half-maximal effect
[12] = Cell Viability - LYMP1-002 - Assay at 16 hr (AID 948); note: potency is the fitted concentration of half-maximal effect
How it was run: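 ATP luminescence (CellTiter-Glo) was measured after 16 hr compound exposure at 37 C of 2500 lymphoblastoid LYMP1-002 cells per well. Concentration-response curves were fitted with the Hill equation to give AC50.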

[13] = MultiTox-Fluor Cytotoxicity Assay - LYMP1-002 - Dead Cells (AID 960); conditions: LYMP1-002 lymphoblastoid cells, dead-cell protease fluorescence; cytotoxicity (dead cells): at 46.1 µM (top of the series); note: potency is the fitted concentration of half-maximal effect; nearly all actives have a fitted effect of over 60% in size
How it was run: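 Acute cytotoxicity in a human lymphoblastoid line is scored as rising dead-cell protease signal after 16 hr exposure at 37 C, measured fluorometrically (485/520).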

[14] = MultiTox-Fluor Cytotoxicity Assay - LYMP1-003 - Dead Cells (AID 961); note: potency is the fitted concentration of half-maximal effect; nearly all actives have a fitted effect of over 70% in size
How it was run: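 LYMP1-003 human lymphoblastoid cells (2500/well) exposed to compound 16 h at 37 C in complete medium; dead-cell protease read with bis-AAF-R110 fluorescence (Ex/Em 485/520) after 60 min at room temperature. Normalized to DMSO and 15 uM tetraoctylammonium bromide; AC50 from Hill fit.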

[15] = MultiTox-Fluor Cytotoxicity Assay - LYMP1-003 - Live Cells (AID 962); note: potency is the fitted concentration of half-maximal effect
How it was run: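 Cells plated at 2500 per well and incubated 5 hr; compounds added and incubated 16 hr at 37 C; MultiTox-Fluor reagent added for 60 min at room temperature; fluorescence of liberated AFC measured at 405/510 nm.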

[16] = Cell Viability - LYMP1-003 - Assay at 24 hr (AID 963); note: potency is the fitted concentration of half-maximal effect
How it was run: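 Acute toxicity in LYMP1-003 lymphoblastoid cells: 24 hr compound treatment at 37 C, ATP measured with CellTiter-Glo after 30 min at room temperature. AC50 derived by fitting the Hill equation to qHTS titrations.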

[17] = Cell Viability - LYMP1-003 - Assay at 40 hr (AID 964); note: potency is the fitted concentration of half-maximal effect; nearly all actives have a fitted effect of over 60% in size
How it was run: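 This qHTS cytotoxicity screen treats human lymphoblastoid cells (LYMP1-003) with compounds for 40 hr and quantifies cellular ATP via luciferase luminescence.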

[18] = Cell Viability - LYMP2-003 (AID 965);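 note: cells exposed to compounds for 24 h before reading; 0% = DMSO only and full effect = 92 µM tetraoctylammonium bromide; nearly all actives have a fitted effect of over 50% in size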
How it was run: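 CellTiter-Glo luminescence quantified ATP loss after 24 h compound treatment of LYMP2-003 lymphoblastoid cells at 37 C. Titration series were fitted with the standard Hill equation to give AC50.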

[19] = Cell Viability - LYMP2-004 (AID 966); note: potency is the fitted concentration of half-maximal effect; nearly all actives have a fitted effect of over 65% in size
How it was run: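 Acute toxicity is scored as a concentration-dependent drop in intracellular ATP, quantified by luciferase luminescence, in human lymphoblastoid cells exposed to compound for 24 hr. AC50 derives from Hill-equation modelling.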

[20] = Cell Viability - LYMP2-005 (AID 967); note: potency is the fitted concentration of half-maximal effect
How it was run: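 LYMP2-005 human lymphoblastoid cells (2500/well) were treated with compounds for 24 h at 37 C. Intracellular ATP was then measured by CellTiter-Glo luminescence after 30 min at room temperature. AC50 values came from Hill-equation fits of qHTS concentration-response data.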

[21] = Cell Viability - LYMP2-009 (AID 968); note: potency is the fitted concentration of half-maximal effect; nearly all actives have a fitted effect of over 55% in size
[22] = Cell Viability - LYMP2-011 (AID 969); note: potency is the fitted concentration of half-maximal effect; nearly all actives have a fitted effect of over 60% in size
How it was run: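 Acute toxicity is scored as a concentration-dependent drop in intracellular ATP of a human lymphoblastoid line after 24 hr treatment. Values are AC50s modeled with the Hill equation.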

[23] = Cell Viability - LYMP2-013 (AID 970); conditions: LYMP2-013 lymphoblastoid cells viability; activity change, negative = cytotoxic: at 92.2 µM (top of the series); note: potency is the fitted concentration of half-maximal effect; nearly all actives have a fitted effect of over 55% in size
How it was run: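 Acute toxicity was measured in human lymphoblastoid cells (2500/well) exposed to compound titrations for 24 hr, with ATP luminescence (CellTiter-Glo) as read-out and AC50 fitted by Hill equation.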

[24] = Cell Viability - LYMP2-015 (AID 971); note: potency is the fitted concentration of half-maximal effect; nearly all actives have a fitted effect of over 55% in size
How it was run: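 Acute toxicity was scored as a concentration-dependent drop in intracellular ATP in lymphoblastoid cells after 24 hr compound exposure in complete medium. Detection used CellTiter-Glo luciferase luminescence.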

[25] = Cell Viability - LYMP2-017 (AID 972);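 note: potency is the fitted concentration of half-maximal effect; cells exposed to compound for 24 hours at 37 °C; nearly all actives have a fitted effect of over 55% in size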
How it was run: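 Steps: plate 2500 lymphoblastoid cells per well; incubate 5 hr at 37 C; add compound across a concentration series and incubate 24 hr at 37 C; add CellTiter-Glo and read luminescence after 30 min at room temperature; fit Hill curves for AC50.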

[26] = Cell Viability - LYMP2-019 (AID 973)
How it was run: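 Cells plated at 2500/well and allowed 5 hr at 37 C before compound addition. After 24 hr incubation, CellTiter-Glo reagent was added, plates sat 30 min at room temperature, and luminescence was recorded.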

[27] = Cell Viability - LYMP2-021 (AID 974)
How it was run: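 Concentration-response cytotoxicity in a human lymphoblastoid line: 24 hr treatment at 37 C in complete culture medium, tetraoctylammonium bromide as positive control, luminescent ATP quantitation as viability measure.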

[28] = Cell Viability - LYMP2-023 (AID 975)
How it was run: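 Concentration-dependent drop in intracellular ATP measures acute cytotoxicity in a human lymphoblastoid line treated for 24 hours in complete culture medium. AC50 values are taken from Hill-equation fits of qHTS data.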
Tags give direction and shape of the fitted curve.

Cc1ccc(S(=O)(=O)Oc2ccc(N=Nc3ccc(-c4ccc(N=Nc5c(O)ccc6cc(S(=O)(=O)O)cc(S(=O)(=O)O)c56)c(C)c4)cc3C)cc2)cc1
active: Potency [6] 0.2 µM
inconclusive: Potency [1] 284 µM [partial curve] | Potency [2] 135 µM [partial curve] | Potency [3] 142 µM [partial curve] | Potency [4] 133 µM [partial curve] | Potency [5] 118 µM [partial curve] | activity change, negative = cytotoxicity [7] -50.7% | activity change, negative = cytotoxicity [8] -56% | Potency [9] 39.8 µM [falling, partial curve] | Potency [10] 39.8 µM [cytotoxic, partial curve, poor fit] | Potency [11] 7.94 µM [cytotoxic, full curve, poor fit] | Potency [12] 31.6 µM [cytotoxic, partial curve] | Potency [13] 25.1 µM [falling, partial curve] | Potency [14] 50.1 µM [falling, partial curve] | Potency [15] 50.1 µM [cytotoxic, partial curve, poor fit] | Potency [16] 39.8 µM [cytotoxic, partial curve] | Potency [17] 39.8 µM [cytotoxic, partial curve] | Potency [19] 25.1 µM [cytotoxic, full curve, poor fit] | Potency [20] 39.8 µM [cytotoxic, partial curve, poor fit] | Potency [21] 31.6 µM [cytotoxic, partial curve] | Potency [22] 39.8 µM [cytotoxic, partial curve] | Potency [23] 39.8 µM [cytotoxic, partial curve] | Potency [24] 25.1 µM [cytotoxic, full curve, poor fit] | Potency [25] 25.1 µM [cytotoxic, full curve] | Potency [26] 20 µM [cytotoxic, full curve, poor fit] | Potency [27] 39.8 µM [cytotoxic, partial curve] | Potency [28] 25.1 µM [cytotoxic, full curve, poor fit]
inactive: Potency [18]

From PubChem BioAssay (NCATS)
